The supplement of paper PMC4967469
A lower IC50 marks a more sensitive line; where the fit passes the top or lowest dose, that dose stands as a limit. AUC is the area under the same curve over the 256-fold range up to the top dose, as a fraction; values near 1 show little effect. For some assays here: The top dose, if marked as inferred, was calculated from the reported fits. For some assays here: Where an entry number is given, a second screen of the drug exists; the two often differ.

compound: CCn1cc(-c2ccnc3[nH]c(-c4cccc(CN(C)C)c4)cc23)c(-c2ccc(NC(=O)N(C)C)cc2)n1 [GSK1070916]; assay: Viability of human cancer cell lines after 72 h of drug (GDSC screen); conditions: top dose inferred
Description: (§1)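 Human cancer cell lines in 384-well plates, medium with 10% serum, drug for 72 h over a 256-fold dose range (nine 2-fold or five 4-fold steps up to the top dose). Adherent lines were fixed and stained with the nucleic acid dye Syto60, suspension lines read with resazurin; signal relative to control wells, capped at 0 and 100%. One two-parameter sigmoid per drug and line, fitted in a mixed model over all curves with the slope shared within a line.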

| Cell Line | AUC | IC50 |
| --- | --- | --- |
| 8-MG-BA (glioma, adherent, top dose 2.56 µM) | 0.941 | > 2.56 µM |
| 22RV1 (prostate, adherent, top dose 2.56 µM) | 0.82 | 1.95 µM |
| 42-MG-BA (glioma, adherent, top dose 2.56 µM) | 0.965 | > 2.56 µM |
| 201T (lung adenocarcinoma, adherent, top dose 2.56 µM) | 0.929 | > 2.56 µM |
| 451Lu (melanoma, adherent, top dose 2.56 µM) | 0.987 | > 2.56 µM |
| 639-V (bladder, adherent, top dose 2.56 µM) | 0.989 | > 2.56 µM |
| 647-V (bladder, adherent, top dose 2.56 µM) | 0.964 | > 2.56 µM |
| 697 (lymphoblastic leukaemia, suspension, top dose 2.56 µM) | 0.017 | < 0.01 µM |
| 769-P (kidney, adherent, top dose 2.56 µM) | 0.845 | 2.11 µM |
| 786-0 (kidney, adherent, top dose 2.56 µM) | 0.893 | > 2.56 µM |
| 5637 (bladder, adherent, top dose 2.56 µM) | 0.173 | 0.0187 µM |
| 8305C (thyroid, adherent, top dose 2.56 µM) | 0.96 | > 2.56 µM |
| 8505C (thyroid, adherent, top dose 2.56 µM) | 0.884 | > 2.56 µM |
| 23132-87 (stomach, adherent, top dose 2.56 µM) | 0.981 | > 2.56 µM |
| A3-KAW (B-cell lymphoma, suspension, top dose 2.56 µM) | 0.852 | 1.39 µM |
| A4-Fuk (B-cell lymphoma, suspension, top dose 2.56 µM) | 0.869 | 2.55 µM |
| A101D (melanoma, adherent, top dose 2.56 µM) | 0.886 | > 2.56 µM |
| A172 (glioma, adherent, top dose 2.56 µM) | 0.958 | > 2.56 µM |
| A204 (rhabdomyosarcoma, adherent, top dose 2.56 µM) | 0.873 | > 2.56 µM |
| A253 (head and neck, adherent, top dose 2.56 µM) | 0.937 | > 2.56 µM |
| A375 (melanoma, adherent, top dose 2.56 µM) | 0.784 | 0.888 µM |
| A388 (skin, adherent, top dose 2.56 µM) | 0.912 | > 2.56 µM |
| A427 (non-small cell lung carcinoma, adherent, top dose 2.56 µM) | 0.938 | > 2.56 µM |
| A431 (skin, adherent, top dose 2.56 µM) | 0.576 | 0.256 µM |
| A498 (kidney, adherent, top dose 2.56 µM) | 0.974 | > 2.56 µM |

| Cell Line | AUC | IC50 |
| --- | --- | --- |
| A673 (rhabdomyosarcoma, adherent, top dose 2.56 µM) | 0.912 | > 2.56 µM |
| A704 (kidney, adherent, top dose 2.56 µM) | 0.989 | > 2.56 µM |
| A2058 (melanoma, adherent, top dose 2.56 µM) | 0.892 | 2.45 µM |
| A2780 (ovary, semi-adherent, top dose 2.56 µM) | 0.45 | 0.117 µM |
| ABC-1 (lung adenocarcinoma, adherent, top dose 2.56 µM) | 0.817 | 1.82 µM |
| ACHN (kidney, adherent, top dose 2.56 µM) | 0.951 | > 2.56 µM |
| AGS (stomach, adherent, top dose 2.56 µM) | 0.972 | > 2.56 µM |
| ALL-PO (lymphoblastic leukaemia, suspension, top dose 2.56 µM) | 0.243 | 0.0275 µM |
| ALL-SIL (T-cell leukaemia, suspension, top dose 2.56 µM) | 0.022 | < 0.01 µM |
| AM-38 (glioma, semi-adherent, top dose 2.56 µM) | 0.881 | > 2.56 µM |
| AMO-1 (haematopoietic neoplasm, suspension, top dose 2.56 µM) | 0.94 | > 2.56 µM |
| AN3-CA (endometrium, adherent, top dose 2.56 µM) | 0.914 | > 2.56 µM |
| ARH-77 (myeloma, suspension, top dose 2.56 µM) | 0.886 | > 2.56 µM |
| ASH-3 (thyroid, adherent, top dose 2.56 µM) | 0.988 | > 2.56 µM |
| ATN-1 (T-cell lymphoblastic leukaemia, suspension, top dose 2.56 µM) | 0.475 | 0.137 µM |
| AU565 (breast, adherent, top dose 2.56 µM) | 0.978 | > 2.56 µM |
| AsPC-1 (pancreas, adherent, top dose 2.56 µM) | 0.924 | > 2.56 µM |
| BB30-HNC (head and neck, adherent, top dose 2.56 µM) | 0.916 | > 2.56 µM |
| BB49-HNC (head and neck, adherent, top dose 2.56 µM) | 0.978 | > 2.56 µM |
| BB65-RCC (kidney, adherent, top dose 2.56 µM) | 0.982 | > 2.56 µM |
| BC-1 (B-cell lymphoma, suspension, top dose 2.56 µM) | 0.543 | 0.206 µM |
| BC-3 (B-cell lymphoma, suspension, top dose 2.56 µM) | 0.965 | > 2.56 µM |
| BCPAP (thyroid, adherent, top dose 2.56 µM) | 0.921 | > 2.56 µM |
| BE2-M17 (neuroblastoma, adherent, top dose 2.56 µM) | 0.957 | > 2.56 µM |
| BE-13 (lymphoblastic leukaemia, suspension, top dose 2.56 µM) | 0.198 | 0.0221 µM |

| Cell Line | AUC | IC50 |
| --- | --- | --- |
| BEN (non-small cell lung carcinoma, adherent, top dose 2.56 µM) | 0.931 | > 2.56 µM |
| BFTC-905 (bladder, adherent, top dose 2.56 µM) | 0.934 | > 2.56 µM |
| BFTC-909 (kidney, adherent, top dose 2.56 µM) | 0.988 | > 2.56 µM |
| BHT-101 (thyroid, adherent, top dose 2.56 µM) | 0.961 | > 2.56 µM |
| BHY (head and neck, adherent, top dose 2.56 µM) | 0.932 | > 2.56 µM |
| BICR10 (head and neck, adherent, top dose 2.56 µM) | 0.985 | > 2.56 µM |
| BICR22 (head and neck, adherent, top dose 2.56 µM) | 0.983 | > 2.56 µM |
| BICR31 (head and neck, adherent, top dose 2.56 µM) | 0.963 | > 2.56 µM |
| BICR78 (head and neck, adherent, top dose 2.56 µM) | 0.98 | > 2.56 µM |
| BPH-1 (prostate, adherent, top dose 2.56 µM) | 0.218 | 0.0215 µM |
| BT-20 (breast, adherent, top dose 2.56 µM) | 0.861 | > 2.56 µM |
| BT-474 (breast, adherent, top dose 2.56 µM) | 0.971 | > 2.56 µM |
| BT-483 (breast, adherent, top dose 2.56 µM) | 0.975 | > 2.56 µM |
| BV-173 (chronic myeloid leukaemia, suspension, top dose 2.56 µM) | 0.066 | < 0.01 µM |
| Becker (glioma, adherent, top dose 2.56 µM) | 0.974 | > 2.56 µM |
| BxPC-3 (pancreas, adherent, top dose 2.56 µM) | 0.981 | > 2.56 µM |
| C2BBe1 (large intestine, adherent, top dose 2.56 µM) | 0.983 | > 2.56 µM |
| C3A (liver, adherent, top dose 2.56 µM) | 0.988 | > 2.56 µM |
| C32 (melanoma, adherent, top dose 2.56 µM) | 0.987 | > 2.56 µM |
| C-4-I (cervix, adherent, top dose 2.56 µM) | 0.968 | > 2.56 µM |
| C-33-A (cervix, adherent, top dose 2.56 µM) | 0.949 | > 2.56 µM |
| CA46 (Burkitt lymphoma, suspension, top dose 2.56 µM) | 0.847 | 2.11 µM |
| CADO-ES1 (Ewing sarcoma, suspension, top dose 2.56 µM) | 0.727 | 0.715 µM |

compound: Cc1ccc(C(=O)N(CCCN)[C@@H](c2nc3cc(Cl)ccc3c(=O)n2Cc2ccccc2)C(C)C)cc1 [SB-715992]; assay: as above; conditions: top dose 0.128 µM; top dose inferred
Description: as §1

| Cell Line | AUC | IC50 |
| --- | --- | --- |
| COR-L311 (small cell lung carcinoma, suspension) | 0.827 | 0.086 µM |

compound: Cc1sc2c(c1C)C(c1ccc(Cl)cc1)=N[C@@H](CC(=O)OC(C)(C)C)c1nnc(C)n1-2 [JQ1]; assay: as above; conditions: top dose 1 µM; screen: GDSC drug entry 1218; top dose inferred
Description: as §1

| Cell Line | AUC | IC50 |
| --- | --- | --- |
| COR-L32 (small cell lung carcinoma, suspension) | 0.955 | > 1 µM |
| H2810 (mesothelioma, adherent) | 0.984 | > 1 µM |
| NCI-H1650 (lung adenocarcinoma, adherent) | 0.977 | > 1 µM |

compound: c1ccc2c(CCNc3ccc(Nc4ccncc4)cc3)c[nH]c2c1 [JNJ-26854165]; assay: as above; conditions: top dose 10 µM
Description: as §1

| Cell Line | AUC | IC50 |
| --- | --- | --- |
| H2810 (mesothelioma, adherent) | 0.839 | 7.87 µM |
| NCI-H1650 (lung adenocarcinoma, adherent) | 0.827 | 8.86 µM |
